Assay results: PubChem BioAssay AID1030 (National Center for Advancing Translational Sciences (NCATS), 2008)
Screen size: about 220,000 compounds; about 16,000 (7.3%) were called active. Inconclusive means that the source gave no clear call. Such entries were picked first, then a sample of the others. Calls come from the whole dose curve; as a rule, active = well fitted inhibition curve with a large enough effect (not every such curve was filed as active); inconclusive = small, poorly fitted or top-dose-only effect, or another doubt; inactive = no such curve, though single readings can be large or run the other way. Potencies beside an inconclusive call are fits to weak or partial responses and may not hold up.

Biological target: Aldehyde dehydrogenase 1A1 (Homo sapiens) (UniProt P00352)
Assay: qHTS Assay for Inhibitors of Aldehyde Dehydrogenase 1 (ALDH1A1);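 for activity, negative = inhibition: plate controls were no enzyme wells and a reference inhibitor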
Conditions: Purified ALDH1A1, NADH fluorescence, propionaldehyde substrate; series mostly up to 75.3 µM; activity, negative = inhibition: at the top concentration
Potency is the fitted concentration of half-maximal effect; tags give direction and shape of the fitted curve.

Chain of UniProt P00352 (P00352 whole entry, looked up): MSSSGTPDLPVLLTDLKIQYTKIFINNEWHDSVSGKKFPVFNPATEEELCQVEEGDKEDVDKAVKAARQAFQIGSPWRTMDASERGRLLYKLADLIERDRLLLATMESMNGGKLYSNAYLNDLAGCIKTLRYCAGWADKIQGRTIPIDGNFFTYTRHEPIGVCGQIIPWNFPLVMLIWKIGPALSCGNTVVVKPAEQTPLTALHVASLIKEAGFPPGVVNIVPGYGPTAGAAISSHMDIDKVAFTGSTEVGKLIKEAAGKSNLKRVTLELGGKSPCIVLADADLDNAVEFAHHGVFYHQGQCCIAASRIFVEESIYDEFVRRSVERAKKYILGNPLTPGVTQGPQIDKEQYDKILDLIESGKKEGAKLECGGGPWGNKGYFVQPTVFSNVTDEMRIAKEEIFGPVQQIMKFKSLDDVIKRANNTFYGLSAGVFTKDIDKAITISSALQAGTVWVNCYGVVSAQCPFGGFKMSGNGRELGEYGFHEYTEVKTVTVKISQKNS

activity, negative = inhibition, inactive:
CCn1c(SCCC(=O)O)nnc1-c1cccnc1 6.58%
O=S(=O)(c1ccccc1)N1CCCC1c1cccs1 (centres undefined) 8.57%
O=C(C[n+]1cc(-c2ccccc2)n2c1CCCCC2)c1ccc(Cl)cc1 13.2%
O=C(O)C[C@H](Sc1ccccc1)c1ccccc1 5.15% [at 13.5 µM]
COc1ccc(N2CCN(C(c3cccs3)C(C)NS(C)(=O)=O)CC2)cc1 (centres undefined) 2.94%
OCC1(CC2CCCCO2)CCN(Cc2cccc(O)c2)CC1 (centres undefined) 9.22%
S=C(c1ccc2c(c1)OCO2)N1CCCC1 6.26%
CCOC(=O)C1CCN(C(=O)COc2ccc(Br)cc2C)CC1 4.23%
CCCCP(=O)(CCCC)Cc1ccccc1 4.12%
Cc1cccc2nc(-c3cccc(NC(=O)c4ccc(Cl)cc4)c3)cn12 -126%
O=c1c2ccccc2oc2nc(C3CCCCC3)n(Cc3ccco3)c(=O)c12 -10.5%
CCc1nnc(NS(=O)(=O)c2ccc(NS(=O)(=O)c3ccc(NC(C)=O)cc3)cc2)s1 -0.517%
Cc1ccc(S(=O)(=O)N(C)Cc2ccc(-c3nnco3)cc2)cc1 5.72%
Cc1nc2ccc(NC(=S)NCc3ccccc3)cc2nc1C -3.98%
O=C(Nn1cnnc1)c1ccc([N+](=O)[O-])cc1 -5.53%

Potency, inconclusive:
CC(=O)Cn1c2ccccc2n2nc(CCC(=O)O)c(=O)nc12 35.5 µM [inhibitor, single point]
COc1ccc(NC(=S)Nc2cnc3ccccc3c2)c(OC)c1 39.8 µM [inhibitor, single point]
c1ccc(-n2nnnc2SCc2cn3cccnc3n2)cc1 25.1 µM [inhibitor, partial curve]
NC(=O)CN1CCN(C2CC(=O)N(CCc3ccccc3)C2=O)CC1 (centres undefined) 37.7 µM [inhibitor, single point]
Cc1cc(C(=O)COC(=O)c2ccc(O)cc2)c(C)n1CC1COc2ccccc2O1 (centres undefined) 39.8 µM [inhibitor, single point]
CCOC(=O)c1c(CN2CCN(C)CC2)oc2ccc(O)cc12 39.8 µM [inhibitor, single point]
Cn1c(CN2CCN(C(=O)c3ccccc3Cl)CC2)nc2cc([N+](=O)[O-])ccc21 12.6 µM [inhibitor, partial curve]
CC1=CC(C)(C)N2C(=O)C3(C(C#N)=C(N)OC4=C3C(=O)CC(C)(C)C4)c3cccc1c32 (centres undefined) 20 µM [inhibitor, partial curve]
CN(C)c1nc(SCc2ccccc2)nc(N2CCOCC2)n1 39.8 µM [inhibitor, single point]
COc1ccc(Cc2n[nH]c(=S)o2)cc1 31.6 µM [inhibitor, single point]
Cc1csc(N/N=C/c2ccccn2)n1 35.5 µM [inhibitor, single point]
O=C1/C(=C/c2cccs2)NC(=S)N1C1CC1 25.1 µM [inhibitor, partial curve]
Cc1cc(C)n2nc(SC(C)C(=O)NCc3ccco3)nc2n1 (centres undefined) 39.8 µM [inhibitor, single point]
COc1ccccc1C1C(C#N)=C(N)Oc2cc(C)n(CCCn3ccnc3)c(=O)c21 (centres undefined) 28.2 µM [inhibitor, single point]
Cc1cccn2c(/C=N/OCc3cccc(F)c3)c(-c3ccc(Cl)cc3)nc12 39.8 µM [inhibitor, single point]
CCOC(=O)c1ccc(N=C2NC(=O)CS2)cc1 25.1 µM [inhibitor, single point]
O=C(OCc1cccs1)c1ccccc1NS(=O)(=O)c1ccc2c(c1)OCCO2 39.8 µM [inhibitor, single point]
Cc1cc(NC(=O)c2cn(C3CCCCC3)c(=O)c3c2c2ccccc2n3C)no1 22.4 µM [inhibitor, partial curve]
COc1ccccc1OCCOCCOc1ccc(C)cc1[N+](=O)[O-] 25.1 µM [inhibitor, partial curve]
COc1ccc(C(=O)Nc2ccccc2-c2nnn(CC(=O)N3CCOCC3)n2)cc1 39.8 µM [inhibitor, single point]
CCOC(=O)C1CCCN(C(=O)CSc2ccc(Br)cc2)C1 (centres undefined) 39.8 µM [inhibitor, single point]
COc1ccc2cc(C(=O)C3CCCN(Cc4cnc(C)s4)C3)ccc2c1 (centres undefined) 25.1 µM [inhibitor, partial curve]
CSc1ncnc2sc(C)c(C)c12 28.2 µM [inhibitor, partial curve]
COc1ccc(-c2cc(C(F)(F)F)nc(SCC(=O)NCc3cccs3)n2)cc1 31.6 µM [inhibitor, single point]
CC1CCN(Cc2cnc(Cl)s2)CC1 31.6 µM [inhibitor, single point]
CCOC(=O)c1cnc(Nc2nc3ccccc3o2)nc1CSC(=S)N1CCCCC1 1.12 µM [inhibitor, partial curve]
O=C(/C=C/c1ccc2c(c1)OCO2)NCCSCc1cccc(Cl)c1 17.8 µM [inhibitor, partial curve]

Potency, active:
O=C(/C=C/c1cccc(Br)c1)NCC1CCCCC1 11.2 µM
C=CCn1c(SCC(=O)Nc2sc(C)c(C)c2C(=O)OCC)nnc1-c1sc(N)nc1C 14.1 µM
O=C(Oc1ccc(-c2cnc3ccccc3n2)cc1)c1cc([N+](=O)[O-])ccc1Cl 0.224 µM
CCCN1C(=O)/C(=C/c2ccco2)SC1=Nc1ccc(OC)cc1 12.6 µM
Cn1c(=O)n(CCc2ccccc2)c(=O)c2c1nc1n2CCCN1c1ccccc1 8.91 µM
NS(=O)(=O)c1ccc(NC(=S)NCc2ccc(Cl)cc2)cc1 22.4 µM
CCCCNC(=O)CNC(=S)N(Cc1ccc(C)cc1)Cc1ccco1 31.6 µM
